From patent US20230310557A1

T1: CD20 on WSU-NHL cells (human) (UniProt P11836)
T1 sequence: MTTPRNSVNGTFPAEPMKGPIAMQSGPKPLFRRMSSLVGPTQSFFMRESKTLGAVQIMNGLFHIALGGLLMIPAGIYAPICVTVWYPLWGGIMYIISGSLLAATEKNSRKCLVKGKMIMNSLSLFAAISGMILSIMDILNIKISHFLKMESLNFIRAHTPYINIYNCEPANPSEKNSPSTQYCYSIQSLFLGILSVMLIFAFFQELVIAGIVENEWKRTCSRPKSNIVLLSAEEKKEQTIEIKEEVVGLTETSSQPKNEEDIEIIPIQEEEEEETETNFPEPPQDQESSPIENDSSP


Experiments:
[1] = target: T1, CD20 on WSU-NHL cells (human); test: cell-based or functional assay
[2] = target: CD79b on target cells (JEKO, OCY-LY3, BJAB, WSU-DLCL2) (human) (UniProt P40259); test: cell-based or functional assay
Sequence of UniProt P40259 (P40259 29-229): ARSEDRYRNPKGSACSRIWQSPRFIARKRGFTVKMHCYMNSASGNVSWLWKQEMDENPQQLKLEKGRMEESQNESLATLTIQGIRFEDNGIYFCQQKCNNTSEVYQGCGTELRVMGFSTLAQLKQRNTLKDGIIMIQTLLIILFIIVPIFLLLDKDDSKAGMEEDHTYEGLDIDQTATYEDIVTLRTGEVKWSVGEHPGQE

| Binder | cell viability IC50 (Cell Titer Glo, 72 h), WSU-NHL cells [1] [nM] | cell viability IC50 (Cell Titer Glo, 72 h), JEKO cells [2] [nM] |
| --- | --- | --- |
| ATB 206 (Fc fusion) QIVLSQSPAILSASPGEKVTMTCRASSSVSYIHWFQQKPGSSPKPWIYATSNLASGVPVRFSGSGSGTSYSLTISRVEAEDAATYYCQQWTSNPPTFGGGTKLEIKGGGGSGGGGSGGGGSQVQLQQPGAELVKPGASVKMSCKASGYTFTSYNMHWVKQTPGRGLEWIGAIYPGNGDTSYNQKFKGKATLTADKSSSTAYMQLSSLTSEDSAVYYCARSTYYGGDWYFNVWGAGTTVTVSAAS[human IgG1 Fc and a few adjoining residues not written out]GGSAVTWTCLNDQKNPKTNKYETKRLLYNQNKAESNSHHAPLSDGKTGSSYPHWFTNGYDGDGKLPKGRTPIKFGKSDCDRPPKHSKDGNGKTDHYLLEFPTFPDGHDYKFDSKKPKENPGPARVIYTYPNKVFCGIIAHTKENQGELKLCSH | 0.0367 |  |
| ATB 676 (antibody) heavy: QVQLQQPGAELVKPGASVKMSCKASGYTFTSYNMHWVKQTPGRGLEWIGAIYPGNGDTSYNQKFKGKATLTADKSSSTAYMQLSSLTSEDSAVYYCARSTYYGGDWYFNVWGAGTTVTVSA[human IgG1 constant region not written out]GGSADTVICEPHQDTETGKIKKFKVDVGVAEDQAKKAGLTTGKSGDPHRYMNGDKINFGIHNCDKEGAILWEYPIYWVGKKAEWMKDEKTDRQPGGPTPIRVVYANNNGNIVYCGVMTHAVVKSNNQGEKFFLKCT light: QIVLSQSPAILSASPGEKVTMTCRASSSVSYIHWFQQKPGSSPKPWIYATSNLASGVPVRFSGSGSGTSYSLTISRVEAEDAATYYCQQWTSNPPTFGGGTKLEIKRTVAAPSVFIFPPSDEQLKSGTASVVCLLNNFYPREAKVQWKVDNALQSGNSQESVTEQDSKDSTYSLSSTLTLSKADYEKHKVYACEVTHQGLSSPVTKSFNRGEC | 0.0376 |  |
| ATB 680 (antibody) heavy: QVQLQQPGAELVKPGASVKMSCKASGYTFTSYNMHWVKQTPGRGLEWIGAIYPGNGDTSYNQKFKGKATLTADKSSSTAYMQLSSLTSEDSAVYYCARSTYYGGDWYFNVWGAGTTVTVSA[human IgG1 constant region not written out]RRRKRSLDTSADTVICEPHQDTETGKIKKFKVDVGVAEDQAKKAGLTTGKSGDPHRYMNGDKINFGIHNCDKEGAILWEYPIYWVGKKAEWMKDEKTDRQPGGPTPIRVVYANNNGNIVYCGVMTHAVVKSNNQGEKFFLKCT light: QIVLSQSPAILSASPGEKVTMTCRASSSVSYIHWFQQKPGSSPKPWIYATSNLASGVPVRFSGSGSGTSYSLTISRVEAEDAATYYCQQWTSNPPTFGGGTKLEIKRTVAAPSVFIFPPSDEQLKSGTASVVCLLNNFYPREAKVQWKVDNALQSGNSQESVTEQDSKDSTYSLSSTLTLSKADYEKHKVYACEVTHQGLSSPVTKSFNRGEC | 0.0191 |  |
| ATB 301 (Fc fusion) EVQLVESGGGLVQPGGSLRLSCAASGYTFSSYWIEWVRQAPGKGLEWIGEILPGGGDTNYNEIFKGRATFSADTSKNTAYLQMNSLRAEDTAVYYCTRRVPIRLDYWGQGTLVTVSSGGGGSGGGGSGGGGSDIQLTQSPSSLSASVGDRVTITCKASQSVDYEGDSFLNWYQQKPGKAPKLLIYAASNLESGVPSRFSGSGSGTDFTLTISSLQPEDFATYYCQQSNEDPLTFGQGTKVEIKAS[human IgG1 Fc and a few adjoining residues not written out]GGSADTVICEPHQDTETGKIKKFKVDVGVAEDQAKKAGLTTGKSGDPHRYMNGDKINFGIHNCDKEGAILWEYPIYWVGKKAEWMKDEKTDRQPGGPTPIRVVYANNNGNIVYCGVMTHAVVKSNNQGEKFFLKCT |  | 0.103 |
